We go through 86 compounds from article PMC4336329 (PLoS ONE, 2015).

Each structure is given as a SMILES string. About 14,000 (4.5%) of roughly 310,000 compounds showed an effect of 50% or more. Effects have a minus sign here. Some of the results follow.
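Also: peak tail current of the secondary pulse compared with the same well before compound.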

Chain of human ether-à-go-go-related gene (hERG) potassium channel (Q12809 whole entry, looked up): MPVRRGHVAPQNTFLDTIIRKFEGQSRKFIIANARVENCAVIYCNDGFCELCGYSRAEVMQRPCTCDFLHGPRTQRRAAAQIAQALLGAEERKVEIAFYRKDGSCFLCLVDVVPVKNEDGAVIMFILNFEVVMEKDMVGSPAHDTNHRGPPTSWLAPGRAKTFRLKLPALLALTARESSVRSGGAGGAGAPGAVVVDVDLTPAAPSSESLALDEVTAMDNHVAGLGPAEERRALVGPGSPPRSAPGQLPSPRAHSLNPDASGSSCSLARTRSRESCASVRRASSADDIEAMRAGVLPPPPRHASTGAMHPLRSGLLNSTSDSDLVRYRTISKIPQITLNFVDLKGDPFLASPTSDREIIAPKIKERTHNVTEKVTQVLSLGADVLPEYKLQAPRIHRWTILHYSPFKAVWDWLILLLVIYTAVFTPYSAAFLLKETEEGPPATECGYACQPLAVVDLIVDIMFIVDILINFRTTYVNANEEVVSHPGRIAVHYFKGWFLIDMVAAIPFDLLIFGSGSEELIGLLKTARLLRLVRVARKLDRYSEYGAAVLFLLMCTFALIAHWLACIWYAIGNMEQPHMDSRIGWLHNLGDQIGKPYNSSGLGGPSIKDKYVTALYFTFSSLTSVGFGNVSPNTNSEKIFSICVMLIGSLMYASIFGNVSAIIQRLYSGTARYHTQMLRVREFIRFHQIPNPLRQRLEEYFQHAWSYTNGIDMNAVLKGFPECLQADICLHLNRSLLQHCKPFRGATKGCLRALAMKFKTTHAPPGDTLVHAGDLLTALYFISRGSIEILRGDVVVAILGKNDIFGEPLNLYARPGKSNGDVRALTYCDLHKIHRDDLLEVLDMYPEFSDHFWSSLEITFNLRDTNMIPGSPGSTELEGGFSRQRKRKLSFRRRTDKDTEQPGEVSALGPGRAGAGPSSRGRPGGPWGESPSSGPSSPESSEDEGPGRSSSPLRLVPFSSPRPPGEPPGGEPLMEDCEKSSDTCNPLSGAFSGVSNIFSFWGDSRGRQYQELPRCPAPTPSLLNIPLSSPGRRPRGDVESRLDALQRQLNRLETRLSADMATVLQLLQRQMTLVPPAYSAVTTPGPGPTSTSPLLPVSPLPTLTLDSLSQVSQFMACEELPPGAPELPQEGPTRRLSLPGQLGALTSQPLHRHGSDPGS

The test concerns the target human ether-à-go-go-related gene (hERG) potassium channel (human, UniProt Q12809). Kind of test: primary screen, population patch clamp on CHO cells stably expressing hERG.
Turning to `CCN(C(=O)COC(=O)CNC(=O)c1cccc(C)c1)c1c(N)n(Cc2ccccc2)c(=O)[nH]c1=O`, the “hERG current change (%, negative = inhibition) at 10uM” value is reported as 14.3%.
The figure for `Cc1ccc(OC(=O)c2ccc(S(=O)(=O)N(C)C)cc2)c(-n2nc3ccccc3n2)c1` is 3.83%; for `C[C@H](NC(=O)c1nc[nH]c1C(=O)N1CCN(c2ccccc2)CC1)C(=O)OC(C)(C)C` it is 2%.
On to `COc1ccc2c(c1)CC(C)C/C2=N\NC(=O)c1ccco1` (centres unmarked), for which the “hERG current change (%, negative = inhibition) at 10uM” value came to 27.5%.
Turning to `CCCCCCC(=O)N(O)C1CC(=O)N(Cc2ccccc2)C1=O` (centres unmarked), the “hERG current change (%, negative = inhibition) at 10uM” value is -1.37%.
For `O=C(N/N=C/c1ccc(Cl)cc1)C(=O)N1CCCCCC1`, the “hERG current change (%, negative = inhibition) at 10uM” value is on record as -5%.
Regarding `Cc1cc(N)n2nc(C(F)(F)F)nc2n1`, the “hERG current change (%, negative = inhibition) at 10uM” value stood at 17.4%.
For the compound `COc1ccc2cc(CCNC(=O)CC(C)(C)C)c(=O)[nH]c2c1`, the “hERG current change (%, negative = inhibition) at 10uM” value is listed as -10.2%.
The figure for `Cn1c(NCc2ccco2)nc2c1c(=O)n(Cc1ccc(Cl)c(Cl)c1)c(=O)n2C` is -15.6%.
For `Cc1ccc(/C=C/C(=O)N2CCN(c3cccc(C(F)(F)F)c3)CC2)cc1`, the “hERG current change (%, negative = inhibition) at 10uM” value was determined as 4.97%.
As for `CC1(C)CC(=O)C=C(Nc2ccccc2F)C1`, the figure is -8.1%.
As for `Cc1c(Cc2ccccc2)c(=O)oc2c(C)c(OCC(=O)NCc3ccccn3)ccc12`, the figure is -5.56%.
The figure for `CN(Cc1ccco1)C(=O)C1CCN(c2nnc(-n3cccc3)s2)CC1` is -46.6%.
With `CCOC(=O)c1sc(C)c2c(=O)n(CCc3ccccc3)nnc12`, the “hERG current change (%, negative = inhibition) at 10uM” value came out at 9.94%.
The figure for `Cc1csc(NC(=O)C2CCCO2)n1` (centres unmarked) is -1.48%; for `CCC1(CC)C(=O)NN(c2ccccc2)C1=O` it is 2.36%; for `COc1ccc(S(=O)(=O)n2nc(OCc3cccs3)cc2N)cc1` it is -22.3%.
As for `NSc1nc(N)c2nc(-c3ccccc3)c(-c3ccccc3)nc2n1`, the figure is 4.96%.
As for `Cc1ccc(NC(=O)CN(C)CC(=O)Nc2ccc(F)c(Cl)c2)cc1.O=C(O)C(=O)O`, the figure is -12.9%; as for `O=C(NCc1ccc(Cl)cc1)C1CCCN(c2ncnc3c2nc2n3CCCCC2)C1` (centres unmarked), -55.4%.
Regarding `C=CCn1c(SCC(=O)Nc2ccc(C(=O)O)cc2)nnc1-c1cccnc1`, the “hERG current change (%, negative = inhibition) at 10uM” value turned out to be 34.6%.
The figure for `N#C/C(=C\c1ccc(OCc2ccc(Br)cc2)cc1)C(=O)Nc1cccc(C(=O)O)c1` is 17.8%; for `Cc1ccc(C2(C)NC(=O)N(CC(=O)NC(=O)NC(C)C)C2=O)cc1` (centres unmarked) it is -2.84%.
As for `CN(C)c1ccc(S(=O)(=O)N2CCCCC2)cc1NC(=O)CCNC(=O)c1ccco1`, the figure is -9.54%; as for `O=C(CSCc1cccc(Cl)c1)Nc1ccccc1-c1ccccc1`, -16.2%; as for `Cc1cccc(NC(=O)COc2coc(CN3CCN(Cc4ccccc4)CC3)cc2=O)c1`, -65%.
The figure for `O=C1NCC(COCc2ccco2)O1` (centres unmarked) is 10.8%; for `Clc1c(CSc2nc3ccccc3o2)nc2ccccn12` it is -20.4%; for `COCCN1C(=O)C(=O)/C(=C(/O)c2ccc(C)cc2)C1c1ccccn1` (centres unmarked) it is 37.2%.
On to `Fc1ccc(N2CCN(C3CCC(c4ccccc4)CC3)CC2)cc1` (centres unmarked), for which the “hERG current change (%, negative = inhibition) at 10uM” value is -17.4%.
The figure for `CCOC(=O)c1nnc(-c2ccccc2)nc1Oc1ccc(Cl)cc1` is -7.45%; for `CN1C(=O)N(C)C(=O)C2(Cc3ccccc3N3CCOCC32)C1=O` (centres unmarked) it is -1.2%.
As for `CC(C)(C)CC(=O)OCC(=O)Nc1cc(C(C)(C)C)nn1-c1ccccc1`, the figure is -20.2%.
On to `Cc1nnc(SCC(=O)N2CCOCC2)c2ccccc12`, for which the “hERG current change (%, negative = inhibition) at 10uM” value was -5.92%.
As for `O=C(N/N=C/c1cccnc1)c1ccc2ccccc2c1O`, the figure is 17%.
The figure for `CC(C)CC1Nc2ncnc(N3CCN(c4ccccc4)CC3)c2N(Cc2ccccc2)C1=O.O=C(O)C(F)(F)F` (centres unmarked) is -5.53%; for `CN(Cc1ccccc1)C(=O)c1ccc(NC(=O)Cc2cccc(NC(=O)C3CCN(C(=O)C4CCC4)CC3)c2)cc1` it is 5.07%.
As for `O=C(Nc1cc(Sc2nc3ccccc3s2)cc([N+](=O)[O-])c1)c1cccc(F)c1F`, the figure is 9.73%.
For the compound `COC(=O)[C@@H]1C[C@H]2CC[C@H](O)C[C@H]2N1Cc1ccccc1OS(=O)(=O)c1ccc(C)cc1`, the “hERG current change (%, negative = inhibition) at 10uM” value is recorded as 1.14%.
As to `CC(NC(=O)C1C(=O)N(CCO)C2(C)CC1c1ccccc1O2)c1ccccc1` (centres unmarked), the “hERG current change (%, negative = inhibition) at 10uM” value is -14.4%.
As for `CCOC(=O)C1CCN(C(=O)CC(C)S(=O)(=O)c2ccc3c(c2)NC(=O)CO3)CC1` (centres unmarked), the figure is 11.8%.
As for `COc1ccc2c(c1)C1=NN(/C(C)=C/C(C)=O)C(c3ccc(F)cc3)C1CC2` (centres unmarked), the figure is -20.4%; as for `CC(Oc1ccccc1F)C(=O)NNC(=O)C1CC(=O)N(c2ccc3c(c2)OCCO3)C1` (centres unmarked), 4.38%.
As for `COc1cccc(-c2nnc3sc(-c4ccccn4)nn23)c1`, the figure is -12.4%; as for `Cc1cc(Cl)ccc1OCC(=O)OCC(=O)NC1CCS(=O)(=O)C1` (centres unmarked), -12.2%.
As to `COc1ccc(NC(=O)CN2C(=O)CC(C)S(=O)(=O)c3ccccc32)cc1` (centres unmarked), the “hERG current change (%, negative = inhibition) at 10uM” value is 6.57%.
As for `CC(=O)C12CC(C)=C(C)CC1CC1C3CCC4=CC(=O)CCC4(C)C3CCC12C` (centres unmarked), the figure is 6.42%; as for `Cc1nc2ncnn2c(C)c1CCC(=O)N1CCN(C(=O)c2ccco2)CC1`, -3.45%; as for `N#Cc1c(NCCN)nc(-c2ccco2)c2c1CCCC2`, -47%.
Regarding `Cc1ccc2cc(C(c3nnnn3Cc3ccccc3)N3CCN(c4ccccc4)CC3)c(=O)[nH]c2c1` (centres unmarked), the “hERG current change (%, negative = inhibition) at 10uM” value was -16.2%.
Take `CCN(CC)CCCn1c2c(c(SCC(=O)Nc3cccc(C(C)=O)c3)nc1=O)CCC2`: the “hERG current change (%, negative = inhibition) at 10uM” value was -59.4%.
As for `Cc1ccc(NC(=S)NNC(=O)c2ccc(N3CCOCC3)c([N+](=O)[O-])c2)cc1Cl`, the figure is 6.24%; as for `COc1ccc(OCC(O)CNC(=O)Nc2ccc(Cl)cc2)cc1` (centres unmarked), 6.64%; as for `CCN1CCN(C(=O)CNC(=O)c2nn(-c3ccc(OC)cc3)c(=O)c3ccccc23)CC1`, 16.3%.
The figure for `CCN(C(=O)CSc1nnc(SC)s1)c1c(N)n(Cc2ccccc2)c(=O)[nH]c1=O` is 11.3%.
The figure for `CCOC(=O)C1=C(C)N(c2nonc2NC(C)=O)C(N)=C(C#N)C1c1ccccc1F` (centres unmarked) is 0.315%; for `Cc1ccc(C(=O)NN2C(=O)CSC2=S)cc1` it is 3.95%.
In the case of `Clc1cccc(C2CCN(Cc3nc(CC4CC4)no3)C2)c1` (centres unmarked), the “hERG current change (%, negative = inhibition) at 10uM” value is -23.8%.
For `CCOc1cc2[nH]c(=O)n(Cc3ccc(C(=O)NCCOC)cc3)c(=O)c2cc1OCC`, the “hERG current change (%, negative = inhibition) at 10uM” value is recorded as -1.14%.
As to `CCc1cccc(C)c1NC(=O)COC(=O)C(NS(=O)(=O)c1ccc(Cl)cc1)C(C)O` (centres unmarked), the “hERG current change (%, negative = inhibition) at 10uM” value is 1.86%.
In the case of `Cc1csc(NC(=O)c2ccncc2)n1`, the “hERG current change (%, negative = inhibition) at 10uM” value is given as 0.28%.
The figure for `O=C1CCCC2=C1C(c1ccncc1)Nc1ccccc1N2` (centres unmarked) is 10.2%; for `Cc1cc(C)c2c(-n3cccc3)c(NC(=O)OCc3ccccc3)sc2n1` it is 7.96%.
In the case of `Cc1noc(C)c1CSc1nc2sc3c(c2c(=O)n1C)CCCC3`, the “hERG current change (%, negative = inhibition) at 10uM” value is 0.356%.
As for `CCCCNC(=O)C1c2ccccc2C(=O)N(c2ccc(OC)cc2)C1c1ccc(OC)cc1` (centres unmarked), the figure is -18.6%.
As for `O=C(CCN1C(=O)C2CC=CCC2C1=O)Nc1cccc(Cl)c1` (centres unmarked), the figure is -11.8%; as for `COc1ccc(CN(C)C(=O)c2ccc(COc3ccccc3)cc2)c(OC)c1`, 9.48%.
The figure for `CC(=O)N1CCN(C(=O)CCNS(=O)(=O)c2ccc(Br)cc2)CC1` is -1.75%; for `Cc1cccc(-c2nnc(-c3ccccc3)o2)c1` it is -0.982%.
`COc1cccc(N=c2oc3c(C)ncc(CO)c3cc2C(N)=O)c1`: the “hERG current change (%, negative = inhibition) at 10uM” value is listed as -8.59%.
As for `O=C(NC1CCCCC1)C(c1c(F)cccc1Cl)N(C(=O)c1csnn1)C1CC1` (centres unmarked), the figure is 16.3%; as for `FC(F)(F)c1ccc(-c2n[nH]c(=S)o2)nc1`, 9.31%; as for `CC(=O)c1ccc(NC(=O)Cn2c(=O)oc3ccccc32)cc1`, 21.1%.
The figure for `COC(=O)c1ccc(NC(=O)c2cc3c(CO)cnc(C)c3oc2=Nc2cccc(C(N)=O)c2)cc1` is 15.5%; for `O=C(CCC(=O)NNC(=O)Nc1cccc(Cl)c1)NCc1ccccc1` it is 7.96%; for `Cc1cc(C)nc(SCc2n[nH]c(=S)n2C)n1` it is 7.5%.
`CC(NC(=O)CN1CCN(Cc2cccc(F)c2)CC1)c1ccccc1` (centres unmarked): the “hERG current change (%, negative = inhibition) at 10uM” value is 3.04%.
The figure for `COc1ccc(OCC(=O)N(Cc2sccc2C)C2CCS(=O)(=O)C2)cc1` (centres unmarked) is -23.2%; for `Cc1nc2nc(-c3ccco3)[nH]n2c(=O)c1C` it is -5.93%.
As for `O=C(CCN1C(=O)/C(=C/c2ccco2)SC1=S)Nc1ccc(O)cc1C(=O)O`, the figure is -9.09%.
As for `Cc1cc(C)c(-c2csc(NC(=O)c3n[nH]c(=O)c4ccccc34)n2)c(C)c1`, the figure is 0.0213%.
`Clc1cccc(CN2CCSCC2)c1Cl`: the “hERG current change (%, negative = inhibition) at 10uM” value is recorded as 18.3%.
As for `CC(O)(CS(=O)(=O)Cc1ccccc1Cl)C(=O)Nc1cccc(C(F)(F)F)c1` (centres unmarked), the “hERG current change (%, negative = inhibition) at 10uM” value is -19.9%.
For the compound `Nc1cccc(S(=O)(=O)Nc2ccccc2)c1`, the “hERG current change (%, negative = inhibition) at 10uM” value worked out at 25.5%.
The figure for `CCC(C)NC(=O)COc1ccc(Br)c(C)c1` (centres unmarked) is 8.76%.
The figure for `CC1Sc2ccccc2N(CC(=O)N(C(C)C)C(C)C)C1=O` (centres unmarked) is -7.58%.
